The target in assay [1] is T1, human CD22 (full length, on cells) (human, UniProt P20273 20-847).
T1 construct: Raji cells carry endogenous human CD22; also called CHO-K1-human CD22 2C4; CHO-K1-human CD22 1G5
T1 sequence: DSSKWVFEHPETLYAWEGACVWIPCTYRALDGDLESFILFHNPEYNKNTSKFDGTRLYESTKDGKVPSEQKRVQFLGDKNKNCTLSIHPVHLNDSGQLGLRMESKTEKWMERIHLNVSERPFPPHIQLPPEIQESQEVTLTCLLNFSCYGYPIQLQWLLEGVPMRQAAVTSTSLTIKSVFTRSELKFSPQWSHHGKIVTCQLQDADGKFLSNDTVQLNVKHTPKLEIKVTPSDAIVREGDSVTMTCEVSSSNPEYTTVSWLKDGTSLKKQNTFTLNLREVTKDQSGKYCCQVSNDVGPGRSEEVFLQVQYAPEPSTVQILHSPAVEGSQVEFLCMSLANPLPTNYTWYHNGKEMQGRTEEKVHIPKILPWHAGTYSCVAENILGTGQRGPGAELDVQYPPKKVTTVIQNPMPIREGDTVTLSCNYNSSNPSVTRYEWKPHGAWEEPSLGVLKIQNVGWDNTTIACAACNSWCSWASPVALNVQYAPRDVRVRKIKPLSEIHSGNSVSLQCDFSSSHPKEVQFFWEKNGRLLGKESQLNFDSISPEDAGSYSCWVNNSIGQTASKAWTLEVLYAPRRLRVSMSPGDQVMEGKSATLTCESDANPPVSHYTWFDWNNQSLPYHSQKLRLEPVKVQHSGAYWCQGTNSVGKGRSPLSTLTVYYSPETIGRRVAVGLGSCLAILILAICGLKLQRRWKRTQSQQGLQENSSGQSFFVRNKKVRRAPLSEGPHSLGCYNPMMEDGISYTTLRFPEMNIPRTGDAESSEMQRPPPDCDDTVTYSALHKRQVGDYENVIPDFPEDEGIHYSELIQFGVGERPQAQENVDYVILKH
Description: FACS, Raji cells.

In assay [2] the target is T2, cynomolgus monkey CD22 on peripheral blood B cells (cynomolgus monkey (Macaca fascicularis)).
T2 construct: whole, on cells; also called cynomolgus monkey B cells
Briefly: FACS, cynomolgus PBMC, CD20+ B cells, antibody 10 nM. On the procedure: (§1) After the cell suspension was centrifuged, the cells were resuspended in PBS containing 1% BSA, and then the cells were counted. […] After washing the cells three times, APC-labeled secondary antibody anti-human IgG Fc (catalog number: 409306, purchased from Biolegend) was added. After incubation at room temperature in the dark for 30 minutes, the cells were washed 5 times, gently resuspended with PBS containing 1% BSA, and detected and analyzed by FACS (FACS Canto™, purchased from BD Company).

Assay [3] has as its target T2, cynomolgus monkey CD22 on peripheral …. Description: FACS, cynomolgus PBMC, CD20+ B cells, antibody 100 nM. On the procedure:
as §1

Another assay has as its target T3, human CD22-ECD-His (human, UniProt P20273 20-687).
T3 construct: Made in HEK293E, purified on nickel column; also called hCD22-ECD-His; recombinant human CD22-ECD His; not shown: His tag
T3 sequence: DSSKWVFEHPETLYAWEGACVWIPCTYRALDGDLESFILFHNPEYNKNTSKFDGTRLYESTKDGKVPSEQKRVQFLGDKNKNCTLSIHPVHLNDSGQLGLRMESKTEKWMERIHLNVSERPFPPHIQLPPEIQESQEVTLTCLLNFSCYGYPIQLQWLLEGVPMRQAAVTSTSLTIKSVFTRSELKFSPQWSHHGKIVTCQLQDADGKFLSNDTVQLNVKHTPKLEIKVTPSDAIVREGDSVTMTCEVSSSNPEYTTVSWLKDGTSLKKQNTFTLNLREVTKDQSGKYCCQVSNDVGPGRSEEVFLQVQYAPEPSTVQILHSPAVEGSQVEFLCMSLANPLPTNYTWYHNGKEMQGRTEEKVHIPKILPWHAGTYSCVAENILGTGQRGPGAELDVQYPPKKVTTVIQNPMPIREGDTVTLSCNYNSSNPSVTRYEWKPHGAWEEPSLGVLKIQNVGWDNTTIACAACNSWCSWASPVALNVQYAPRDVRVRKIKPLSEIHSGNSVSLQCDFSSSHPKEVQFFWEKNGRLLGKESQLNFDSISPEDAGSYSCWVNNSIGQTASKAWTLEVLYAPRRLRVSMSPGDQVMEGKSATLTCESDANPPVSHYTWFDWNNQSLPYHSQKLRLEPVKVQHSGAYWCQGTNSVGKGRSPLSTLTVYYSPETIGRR
Description: SPR (Biacore), antibody captured on Protein A, hCD22-ECD-His analyte. Here is the method:
Sample buffer and running buffer were HBS-EP+(10 mM HEPES, 150 mM NaCl, 3 mM EDTA, 0.05% surfactant P20) (GE Healthcare; BR-1006-69). The flow-through cell was set to 25° C. The sample block was set to 16° C. Both were pretreated with the running buffer. In each cycle, the antibody to be tested was first captured with a Protein A chip, then a single concentration of CD22 antigen protein was injected. The binding and dissociation process of the antibody and the antigen protein was recorded, and finally Glycine pH 1.5 (GE Healthcare; BR-1003-54) was used to complete chip regeneration. […] The concentration started from 200 nM (see the detailed results for the actual concentration in the test) and was diluted at 1:1, making a total of 5 concentrations. The dissociation phase was monitored for up to 600 s and was triggered by switching from sample solution to running buffer. The surface was regenerated by washing with a 10 mM of glycine solution (pH 1.5) for 30 s at a flow rate of 30 μL/min. Bulk refractive index difference was corrected by subtracting the response obtained from the goat anti-human Fc surface. Blank injection was also subtracted (=double reference). For calculation of apparent KD and other kinetic parameters, Langmuir 1:1 model was used.

We go through 3 molecules from patent US20230416360A1 (SIMCERE ZAIMING PHARMACEUTICAL, published 2023).

B1: S002-NB151-13 VHH-Fc (Fc fusion)
chain: QVQLVESGGGLVQAGDSLRLSCAASTRIFRSYVMGWFRQAPGKEREAVASIRWSNDTGTYADSVKGRFTISRDNAKNTVYLQMNSLKPEDTAVYSCAADSPPWGRTWYTGYDYWGQGTQVTVSS[human IgG1 Fc with changes cut from this listing]
notes: VHH cloned into vector BI3.4-huIgG1 (hinge and human IgG1 Fc), made in HEK293E
As to B1, in assay [1], the midpoint of the response, the EC50, lay at 0.45 nM and the “Max MFI” value was determined as 3960. For the same molecule, the “Proportion of VHH-Fc antibody positive cells to B cells (%)” value (“Proportion … (%)” below) in assay [2] was 23%. The “Proportion … (%)” value in assay [3] came out at 61%. Moreover, in the assay with human CD22-ECD-His, binding was characterised by a dissociation constant (Kd) of 0.598 nM, the off-rate constant (koff) was 3.58e-05 s⁻¹ and the on-rate constant (kon) amounted to 59800 M⁻¹ s⁻¹.

B2: S002-NB151-14 VHH-Fc (Fc fusion)
chain: QVQLVESGGGLVQAGGSLRLSCTTSGGTLSRITMGWFRQAPGKEREFVAAIKWGGSSTPYSDSVKGRFTISRDNAKNTVYLQMDRLVPEDTAVYYCAGGLRGPYSDSVTSSVQYNYWGQGTQVTVSS[human IgG1 Fc with changes cut from this listing]
notes: VHH cloned into vector BI3.4-huIgG1 (hinge and human IgG1 Fc), made in HEK293E; also called 5002-NB151-14
B2: in assay [1], the EC50 is 1.03 nM and the “Max MFI” value turned out to be 2370. In addition, the “Proportion … (%)” value in assay [2] is 90%. For the same molecule, the “Proportion … (%)” value in assay [3] was determined as 94%. Further, in the assay with human CD22-ECD-His, the Kd amounted to 15.9 nM, the koff came out at 0.000254 s⁻¹ and the on-rate constant (kon) is 16000 M⁻¹ s⁻¹.

B3: S002-NB150-152n VHH-Fc (Fc fusion)
chain: EVQVVESGGGLVQTGGSLRLSCAASGRPFDWLTVGWFRQAPGKEREFVAAISQSGGRIFYSDSVKGRFTISRDNAKNTAFLQMNSLKPEDTAVYSCAAQMRGYSRAAYPDEYDYWGQGTQVTVSS[human IgG1 Fc with changes cut from this listing]
notes: as for B1
Take B3: in assay [1], a half-maximal effect (EC50) was put at 0.12 nM and the “Max MFI” value turned out to be 2110. Further, in assay [2], the “Proportion … (%)” value was 6%. The “Proportion … (%)” value in assay [3] worked out at 14%. In the assay with human CD22-ECD-His, this molecule displayed a dissociation constant Kd of 2.08 nM, a koff of 0.000442 s⁻¹ and an on-rate constant (kon) of 212000 M⁻¹ s⁻¹.
